Experimental data as given in the supplement of paper PMC8007513.
Counter-ions that a name gives are not always drawn. ± gives the standard error. In all, about 1,300 compounds went through this assay and about 130 (10%) showed an effect of 50% or more. This is a selection; strong and weak results do not stand in their true shares.

Test system: Trichoderma virens ATCC 9645
Experiment: growth yield (OD600) with compound + IPBC relative to untreated control; higher = less growth inhibition
Details: compound concentration: 100 uM, IPBC concentration: 200 ng/ml
Summary of the method: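 Library compounds (100 μM final), with or without a co-applied biocide (200 ng ml^−1), were added to 100 μl aliquots of Trichoderma virens ATCC 9645 spores at 15,000 spores ml^−1 in potato dextrose broth. Cultures were grown at 30 °C in 96-well plates, and OD600 was measured at 40 h and 72 h. Each growth value is a mean of duplicate screens, expressed relative to the control with neither agent.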

Compound	growth yield (40 h) [%]	growth yield (72 h) [%]
CC(C)N1CCN(c2ccc(OCC3COC(Cn4cncn4)(c4ccc(Cl)cc4Cl)O3)cc2)CC1 (stereo not drawn) [Terconazole] + CCCCNC(=O)OCC#CI [3-iodo-2-propynyl butylcarbamate (IPBC)]	69.9 ± 2.5	87 ± 1.3
C[N+]1([O-])[C@@H]2C[C@@H](OC(=O)[C@H](CO)c3ccccc3)C[C@H]1[C@@H]1O[C@@H]12 (stereo partly drawn) [Scopolamin-N-oxide hydrobromide] + CCCCNC(=O)OCC#CI [3-iodo-2-propynyl butylcarbamate (IPBC)]	103 ± 2.2	102 ± 1.1
CCN1CCN(C(=O)N[C@@H](C(=O)N[C@@H]2C(=O)N3[C@@H]2SC(C)(C)[C@@H]3C(=O)O)c2ccccc2)C(=O)C1=O [Piperacillin sodium salt] + CCCCNC(=O)OCC#CI [3-iodo-2-propynyl butylcarbamate (IPBC)]	113 ± 8.6	105 ± 6.5
CN(C)CCC[C@@]1(c2ccc(F)cc2)OCc2cc(C#N)ccc21 [Escitalopram oxalate] + CCCCNC(=O)OCC#CI [3-iodo-2-propynyl butylcarbamate (IPBC)]	76.08 ± 0.48	86.6 ± 1.3
CCCC(=O)Nc1ncnc2c1ncn2[C@@H]1O[C@@H]2COP(=O)(O)O[C@H]2[C@H]1OC(=O)CCC [Bucladesine sodium salt] + CCCCNC(=O)OCC#CI [3-iodo-2-propynyl butylcarbamate (IPBC)]	102 ± 14	102 ± 7
CN1CCCC(n2nc(Cc3ccc(Cl)cc3)c3ccccc3c2=O)CC1 (stereo not drawn) [Azelastine hydrochloride] + CCCCNC(=O)OCC#CI [3-iodo-2-propynyl butylcarbamate (IPBC)]	65.6 ± 4.3	92.6 ± 2.8
CN1CCCCC1CCN1c2ccccc2Sc2ccc([S+](C)[O-])cc21 (stereo not drawn) [Mesoridazine besylate] + CCCCNC(=O)OCC#CI [3-iodo-2-propynyl butylcarbamate (IPBC)]	72.6 ± 2.4	89.25 ± 0.52
NC(=O)N/N=C/c1ccc([N+](=O)[O-])o1 [Nitrofural] + CCCCNC(=O)OCC#CI [3-iodo-2-propynyl butylcarbamate (IPBC)]	89.6 ± 10	92.5 ± 5.7
CC(=O)Oc1cccc2c1C(=O)c1c(OC(C)=O)cc(C(=O)O)cc1C2=O [Diacerein] + CCCCNC(=O)OCC#CI [3-iodo-2-propynyl butylcarbamate (IPBC)]	72.59 ± 0.48	75.4 ± 1.6
C=C1C[C@H]2[C@@H]3C=C(C)C4=CC(=O)CC[C@]4(C)[C@H]3CC[C@]2(C)[C@@]1(OC(C)=O)C(C)=O [Melengestrol acetate] + CCCCNC(=O)OCC#CI [3-iodo-2-propynyl butylcarbamate (IPBC)]	100 ± 2.1	102 ± 2.8
Nc1ccc(S(=O)(=O)c2ccc(N)cc2)cc1 [Dapsone] + CCCCNC(=O)OCC#CI [3-iodo-2-propynyl butylcarbamate (IPBC)]	97.8 ± 2.9	101 ± 3.6
CN(C)CCc1c[nH]c2ccc(Cn3cncn3)cc12 [Rizatriptan benzoate] + CCCCNC(=O)OCC#CI [3-iodo-2-propynyl butylcarbamate (IPBC)]	87.2 ± 0.79	91.9
OCCN1CCN(CCCN2c3ccccc3Sc3ccc(Cl)cc32)CC1 [Perphenazine] + CCCCNC(=O)OCC#CI [3-iodo-2-propynyl butylcarbamate (IPBC)]	4.29 ± 0.48	2.94 ± 0.42
Oc1cc(Cl)ccc1Oc1ccc(Cl)cc1Cl [Triclosan] + CCCCNC(=O)OCC#CI [3-iodo-2-propynyl butylcarbamate (IPBC)]	3.02 ± 0.16	2.2 ± 0.1
CC1(C)OC(=O)NC1=O [Dimethadione] + CCCCNC(=O)OCC#CI [3-iodo-2-propynyl butylcarbamate (IPBC)]	98.3 ± 11	98.2 ± 8
N=C(N)NCC1COC2(CCCCC2)O1 (stereo not drawn) [Guanadrel sulfate] + CCCCNC(=O)OCC#CI [3-iodo-2-propynyl butylcarbamate (IPBC)]	107 ± 4.1	104 ± 5
CCC[C@H](N[C@@H](C)C(=O)N1[C@H](C(=O)O)C[C@@H]2CCCC[C@@H]21)C(=O)OCC [Perindopril] + CCCCNC(=O)OCC#CI [3-iodo-2-propynyl butylcarbamate (IPBC)]	98.8 ± 5.1	97.5 ± 3.1
Nc1ccc(C(=O)NCC(=O)O)cc1 [Aminohippuric acid] + CCCCNC(=O)OCC#CI [3-iodo-2-propynyl butylcarbamate (IPBC)]	85.3 ± 2.1	93.5 ± 1.3
COc1ccc(NS(=O)(=O)c2ccc(N)cc2)nn1 [Sulfamethoxypyridazine] + CCCCNC(=O)OCC#CI [3-iodo-2-propynyl butylcarbamate (IPBC)]	89.1 ± 9.1	96 ± 4.1
Cc1c(N(C)CS(=O)(=O)O)c(=O)n(-c2ccccc2)n1C [Dipyrone] + CCCCNC(=O)OCC#CI [3-iodo-2-propynyl butylcarbamate (IPBC)]	92.4 ± 6.7	87.9 ± 5.2

Compound	growth yield (40 h) [%]	growth yield (72 h) [%]
CC(NCCC(c1ccccc1)c1ccccc1)c1ccccc1 (stereo not drawn) [Fendiline hydrochloride] + CCCCNC(=O)OCC#CI [3-iodo-2-propynyl butylcarbamate (IPBC)]	70.37 ± 0.16	93.7 ± 1.4
O=c1[nH]c(=O)n(C2CCCO2)cc1F (stereo not drawn) [Tegafur] + CCCCNC(=O)OCC#CI [3-iodo-2-propynyl butylcarbamate (IPBC)]	84.98 ± 0.79	85.3 ± 1.8
CCN(CC)CCc1nc(-c2ccccc2)no1 [Oxalamine citrate salt] + CCCCNC(=O)OCC#CI [3-iodo-2-propynyl butylcarbamate (IPBC)]	96.6 ± 11	96.7 ± 7.1
CC(C)NC[C@@H](O)COc1cccc2ccccc12 [(R)-Propranolol hydrochloride] + CCCCNC(=O)OCC#CI [3-iodo-2-propynyl butylcarbamate (IPBC)]	76.9 ± 2.9	86.3 ± 1.4
C[C@]12CC[C@@H]3c4ccc(OC(=O)N(CCCl)CCCl)cc4CC[C@H]3[C@@H]1CC[C@@H]2O [Estramustine] + CCCCNC(=O)OCC#CI [3-iodo-2-propynyl butylcarbamate (IPBC)]	97.8 ± 4.5	98.1 ± 4.7
O=c1oc2ccccc2c(O)c1Cc1c(O)c2ccccc2oc1=O [Dicumarol] + CCCCNC(=O)OCC#CI [3-iodo-2-propynyl butylcarbamate (IPBC)]	92.3 ± 6.5	93.2 ± 3
CN1CCN(CCCN2c3ccccc3Sc3ccc(Cl)cc32)CC1 [Prochlorperazine dimaleate] + CCCCNC(=O)OCC#CI [3-iodo-2-propynyl butylcarbamate (IPBC)]	3.18	2.73 ± 0.21
Cc1nc(=O)c2cc(CN(C)c3ccc(C(=O)N[C@@H](CCC(=O)O)C(=O)O)s3)ccc2[nH]1 [Raltitrexed] + CCCCNC(=O)OCC#CI [3-iodo-2-propynyl butylcarbamate (IPBC)]	91 ± 8.1	92.6 ± 4.7
CN1CCN(c2c(F)cc3c(=O)c(C(=O)O)cn(CCF)c3c2F)CC1 [Fleroxacin] + CCCCNC(=O)OCC#CI [3-iodo-2-propynyl butylcarbamate (IPBC)]	84.98 ± 0.79	89.67 ± 0.73
C[C@H](CCC(=O)O)[C@H]1CC[C@H]2[C@@H]3[C@H](O)C[C@@H]4C[C@H](O)CC[C@]4(C)[C@H]3CC[C@]12C [Chenodiol] + CCCCNC(=O)OCC#CI [3-iodo-2-propynyl butylcarbamate (IPBC)]	79.58 ± 0.48	94.5 ± 1.1
NNc1nncc2ccccc12 [Hydralazine hydrochloride] + CCCCNC(=O)OCC#CI [3-iodo-2-propynyl butylcarbamate (IPBC)]	120 ± 6.8	125 ± 11
CC(=O)OCC(CCn1cnc2cnc(N)nc21)COC(C)=O [Famciclovir] + CCCCNC(=O)OCC#CI [3-iodo-2-propynyl butylcarbamate (IPBC)]	112 ± 8.4	108 ± 6
COc1c2occc2c(OC)c2c(=O)cc(C)oc12 [Khellin] + CCCCNC(=O)OCC#CI [3-iodo-2-propynyl butylcarbamate (IPBC)]	89.1 ± 5.9	96.1 ± 4.2
Nc1cc(C(Cl)=C(Cl)Cl)c(S(N)(=O)=O)cc1S(N)(=O)=O [Clorsulon] + CCCCNC(=O)OCC#CI [3-iodo-2-propynyl butylcarbamate (IPBC)]	86.4 ± 2.2	90.8 ± 3.1
CC[C@H](C)C(=O)O[C@H]1CCC=C2C=C[C@H](C)[C@H](CC[C@@H]3C[C@@H](O)CC(=O)O3)[C@H]21 [Mevastatin] + CCCCNC(=O)OCC#CI [3-iodo-2-propynyl butylcarbamate (IPBC)]	98.6 ± 4.3	93.8 ± 1.1
O=S(=O)(O)c1cc(O)ccc1O [Ethamsylate] + CCCCNC(=O)OCC#CI [3-iodo-2-propynyl butylcarbamate (IPBC)]	91.5 ± 8.3	96.2 ± 6.8
c1ccc([C@H]2CN3CCSC3=N2)cc1 [Levamisole hydrochloride] + CCCCNC(=O)OCC#CI [3-iodo-2-propynyl butylcarbamate (IPBC)]	94.5 ± 2.1	97.33 ± 0.21
CCC(=O)O[C@]1(C(=O)CCl)[C@@H](C)C[C@H]2[C@@H]3CCC4=CC(=O)C=C[C@]4(C)[C@@]3(F)[C@@H](O)C[C@@]21C [Clobetasol propionate] + CCCCNC(=O)OCC#CI [3-iodo-2-propynyl butylcarbamate (IPBC)]	109 ± 7.2	106 ± 4.7
CCCNCC(O)COc1ccccc1C(=O)CCc1ccccc1 (stereo not drawn) [Propafenone hydrochloride] + CCCCNC(=O)OCC#CI [3-iodo-2-propynyl butylcarbamate (IPBC)]	77.04 ± 0.16	88.8 ± 2
